Laboratory results reported in patent publication US20090053212A1.

Biological target: thrombin-cleaved human osteopontin (human), P10451
Assay: cell-based or functional assay

thrombin-cleaved human osteopontin (human), P10451, sequence (P10451 17-314): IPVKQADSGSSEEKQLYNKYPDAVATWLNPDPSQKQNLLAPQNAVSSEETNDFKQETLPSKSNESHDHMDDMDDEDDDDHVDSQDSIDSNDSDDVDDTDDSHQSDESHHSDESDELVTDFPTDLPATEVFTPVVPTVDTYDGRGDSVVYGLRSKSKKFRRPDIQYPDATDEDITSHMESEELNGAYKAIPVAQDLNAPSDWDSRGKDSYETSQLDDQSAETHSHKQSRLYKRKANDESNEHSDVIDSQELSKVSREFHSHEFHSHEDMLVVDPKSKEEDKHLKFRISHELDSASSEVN

B1: R2K1v1.7 antibody (antibody, human IgG1, kappa)
heavy: QVQLQQSGAEVKKPGASVKVSCKALGYTFTDYEMHWVKQTPVHGLEWIGAIHPGRGGTAYNQKFKGKATLTADKSTSTAYMELSSLTSEDTAVYYCTRITGYFDVWGQGTTVTVSS[not shown - human IgG1 constant region]
light: DVVMTQSPLSLSVTLGQPASISCRSSQSIVHSNGNTYLEWYLQKPGQSPQLLIYKVSNRFSGVPDRFSGSGSGTDFTLKISRVEAEDVGVYYCFQGSHVPLTFGQGTKLEIKRTVAAPSVFIFPPSDEQLKSGTASVVCLLNNFYPREAKVQWKVDNALQSGNSQESVTEQDSKDSTYSLSSTLTLSKADYEKHKVYACEVTHQGLSSPVTKSFNRGEC
Mean cell count (migration of TNF-alpha-activated human peripheral blood monocytes, 48-well microchemotaxis chamber; antibody 50 ug/mL): 723 cells/mm^3
